In PubChem BioAssay AID1508623 (National Center for Advancing Translational Sciences (NCATS), 2021):
About 450 (0.94%) of roughly 48,000 compounds were called active. Roughly 19% stayed inconclusive and do not appear here. Calls follow the shape of the dose curve; as a rule, active = well fitted inhibition curve with a large enough effect; inconclusive = small, poorly fitted or top-dose-only effect; inactive = no such curve, though single readings can be large or run the other way. This is one part of the list.

Assay: Primary qHTS for Identification of Small Molecule Inhibitors of Huntingtin Promoter Activity; also: nearly all actives have a fitted effect of over 50% in size
Settings: HEK293 HTT promoter firefly luciferase reporter (activity 0% = vehicle and -100% = no light), 24 h; series mostly up to 57.5 µM; activity change, negative = inhibition: at the top concentration
Summary of the method: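 HEK293 cells carrying firefly luciferase reporters were seeded at 2,500 per well in Opti-MEM and cultured for 24 h. They were then treated with compounds at up to 57.5 uM final for 24 h at 37 degrees C before Dual-Glo luminescence readout.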
Potency is read from the fitted curve at half-maximal effect.

Activity change, negative = inhibition, inactive:
CCCCCn1c(CNC(=O)c2ccc(F)cc2)nc2ccccc21 -11.6%, CN(C)C1(CNC(=O)COc2ccc(C(C)(C)C)cc2)CCCCC1 -15.3%, CCOC(=O)c1c(C)[nH]c(C)c1S(=O)(=O)N1CCC(C(=O)NCc2ccc(N(C)C)cc2)CC1 -7.66%, CCCCCn1c(-c2cccc(C)c2)nc2ccccc21 -9.45%, O=C(Nc1ccc2c(c1)OCO2)c1cc(-c2ccc(Cl)cc2)on1 0.611%, COc1ccccc1OCC(=O)Nc1c(C(=O)c2ccc(C)cc2)oc2ccccc12 -7.22%, COc1ccc(OC)c(CCNC(=O)C(C)n2c(C)c3cnn(-c4ccccc4)c(=O)c3c2C)c1 (centres undefined) -11.6%, COc1ccc(Cl)cc1C(=O)Nc1c2c(nn1-c1ccc(Cl)cc1)CS(=O)(=O)C2 -0.939%, COc1ccc(Cl)cc1NC(=O)CSc1nc(=O)[nH]c2c1CCCC2 -12.3%, COc1ccccc1NC(=O)c1oc2ccccc2c1NC(=O)COc1ccccc1OC 4.74%, CCOc1ccc(NC(=O)Cn2cc(C(=O)c3ccccc3)c(=O)c3cc4c(cc32)OCO4)cc1 6.74%, Cc1ccc(Cn2c(=O)n(-c3ccc(C)c(C)c3)c(=O)c3c(C)c(C)sc32)cc1 -18.3%, Cc1ccc2oc(-c3ccc(NC(=O)c4cccc(F)c4)c(C)c3)nc2c1 1.32%, CC(=O)N1c2c(cc(Br)cc2S(=O)(=O)NCc2ccccc2Cl)CC1C (centres undefined) -20.4%, COc1ccc(NC(=O)c2cc(C)nc3c2c(C)nn3-c2cccc(Cl)c2C)c(OC)c1 -20.1%, CN(C)CCOc1ccccc1Cc1ccccc1 1.57%, COc1cc(NC(=O)N2CCC(CN3CCc4ccccc4C3)CC2)cc(OC)c1 -23.5%, CCOc1ccc(OCC)c(NC(=O)c2csc3c2CCCC3)c1 0.927%, CCN(CCCCOC(=O)c1ccc(OC)c(OC)c1)C(C)Cc1ccc(OC)cc1 (centres undefined) 7.64%, O=C(NCC(c1ccco1)S(=O)(=O)c1cccs1)c1ccc(C(F)(F)F)cc1 (centres undefined) -23.1%, COc1cccc(NC(=O)Nc2cc(-c3cn4cccnc4n3)ccc2OC)c1 50.7%, CCn1cc2nc(SCc3ccccc3)n(Cc3ccc(C)cc3)c(=O)c2n1 -12.3%, Cc1cc(C(C)(C)C)cc(C)c1CC1=NCCN1, Clc1ccc(-c2noc3ncnc(N4CCCCC4)c23)cc1 -29.3%, COc1ccc(-c2noc(CSc3nnc(C)n3-c3ccc(C)cc3)n2)cc1 -24.2%, COc1ccc(N2CC(C(=O)Nc3ccccc3-c3nc(-c4ccc(C)cc4)no3)CC2=O)cc1 (centres undefined) 6.16%, CC(C)(CO)[C@@H](O)C(=O)NCCC(=O)O -7.62%, CCCSc1nc2c(c(=O)[nH]1)C(c1ccc(O)c(OCC)c1)CC(=O)N2 (centres undefined) -20.8%, COc1ccc(C(=O)NCCc2nc3ccccc3[nH]2)cc1 -4.26%, CCOc1ccc(C(CC(=O)Nc2ccc(C(=O)OC)cc2)N2Cc3ccccc3C2=O)cc1OC (centres undefined) -14.3%, CC(C)(C)c1ccc(OCc2cc(=O)n3c4c(sc3n2)CCCC4)cc1 -7.42%, Cc1ccccc1CSCc1ccc(C(=O)NCCc2ccccc2)o1 -13.6%, Cc1ccc(CCNC(=O)C2CCCN(S(=O)(=O)c3ccc4c(c3)oc(=O)n4C)C2)cc1 (centres undefined) -8.28%, CCc1ccc(-n2nc(C)c3c(C)cc(=O)n(CC(=O)N(CC)Cc4ccccc4)c32)cc1 -2.89%, CCc1ccc(C(=O)c2cn(Cc3ccccc3)c3cc(OC)c(OC)cc3c2=O)cc1 -25.6%, Oc1c(C(c2ccc(Cl)cc2Cl)N2CCCC2)sc2nc(-c3ccco3)nn12 (centres undefined) 0.346%, COc1ccccc1NC(=O)CSc1nc(-c2cccc(Cl)c2)nc2c1Cc1c(CO)cnc(C)c1O2 -16.3%, CCOc1ccc(CCNC(=O)CCSCc2cccc(Cl)c2)cc1OCC -24.7%, CCc1ccccc1NC(=O)COC(=O)c1cn(CC)c2nc(C)ccc2c1=O -14.3%, CCCCOC(=O)c1ccc(Nc2nc3ccc(C)cc3n3cnnc23)cc1 -12.1%, CN(C)c1ccc(NC(=O)C2(c3cccs3)CCOCC2)cc1 -1.21%, O=C(Nc1cc(Cl)ccc1O)c1cc2nc(-c3ccc4c(c3)OCO4)cc(C(F)(F)F)n2n1 -5.38%, CCCOc1ccc(Cn2c(=O)sc3ccccc32)cc1 -6.59%, Cc1ccc(-c2nc(SCC(=O)Nc3cc(C)on3)c3c(=O)n(C)c(=O)n(C)c3n2)cc1 -5.78%, COc1ccccc1NC(=O)c1c(NC(=O)c2cccs2)sc2c1CCC(C(C)(C)C)C2 (centres undefined) -11.4% [at 11.5 µM], CCCCCNc1nc2c(-c3ccccc3)nnn2c2ccccc12 -17.1%, CCc1ccc(OC(=O)c2sc3ncn(Cc4cccc(F)c4)c(=O)c3c2C)cc1 -6.2%, O=P(O)(O)C(O)(Cn1ccnc1)P(=O)(O)O -1.32% [at 25.2 µM], O=C(NCc1ccc(F)cc1Cl)c1ccc(CSCc2ccccc2Cl)o1 -4.86%, Cc1ccc(NC(=O)c2cc(-c3cccs3)nc3ccccc23)c(C)c1 -11.8%, Cc1ccc(N2CCN(C(=O)Nc3cn(CC(C)C)c(=O)c4ccccc34)CC2)c(C)c1 -1.94%, CC(C)Oc1ccc(CNC(=O)c2cnc3sc(N4CCCCCC4)nn3c2=O)cc1 14.4%, C[C@]12CCC3c4ccc(O)cc4CCC3C1CCC2=O (some centres undefined) -15.8%, CCOc1ccc(/C=C/c2nc(C#N)c(N3CCCCCC3)o2)cc1 -8.13%, Cc1ccc(CNC(=O)c2ccc(CSCc3c(F)cccc3Cl)o2)cc1 3.72%, CC#CCn1c(N2CCC[C@@H](N)C2)nc2c1c(=O)n(Cc1nc(C)c3ccccc3n1)c(=O)n2C -2.97%, COc1ccccc1NC(=O)Cn1c(=O)n(Cc2nc(C)no2)c(=O)c2cc3c(cc21)OCO3 -9.91%, COc1ccccc1NC(=O)N1CCOc2ccccc21 -4.42%, Cc1cc(C)n2nc(CNS(=O)(=O)c3ccc(F)cc3)nc2n1 13.1%, CCCN(CCC)CCNC(=O)Cn1cnc2sc(C)c(S(=O)(=O)N3CCN(c4ccccc4OC)CC3)c2c1=O -14.5%, COc1cccc(CNC(=O)c2ccc(CN3CC(=O)N4CCCCC4C3=O)cc2)c1 (centres undefined) -20.2%, COc1ccccc1/C=C(\C#N)C(=O)NCC1CCCO1 (centres undefined) 1.93%, CCOc1ccc(-n2c(SCC(=O)N3CCCc4ccccc43)nc3c([nH]c4ccccc43)c2=O)cc1 -6.21%, CN(c1ccc(Cl)cc1)S(=O)(=O)c1nnc(NC(=O)c2ccco2)s1 -12.8%, CCOC(=O)c1[nH]c(C)c(C(=O)NCCc2ccccc2)c1C 37.9%, CCOc1ccccc1NC(=O)CCS(=O)(=O)c1ccc(OC)cc1 1.08%, O=C(CCn1c(=O)c2ccccc2n(Cc2ccc(Cl)cc2)c1=O)NCc1ccc2c(c1)OCO2 0.269%, COc1ccc(CCNC(=O)C(=O)Nc2ccc(C)c(C)c2)cc1OC 16%, Cc1ccc2nc(NCCc3ccc(Cl)cc3)c3nncn3c2c1 -13.1%, COc1ccc(C)cc1NC(=O)Cc1ccc(NC(=O)N2CCCCc3ccccc32)cc1 -25%, Cc1ccc(C)c(Oc2c(C(F)(F)F)oc3c(CN4CCN(C)CC4)c(O)ccc3c2=O)c1 -13.2%, CC(C)c1ccc(Nc2c(-c3ccsc3)nc3ccc(Cl)cn23)cc1 -0.732%, CCn1cc(C(=O)NCc2ccccc2Cl)c(=O)c2cc(S(=O)(=O)N3CCOCC3)ccc21 -3.08%, C[C@@H]1C[C@H]2[C@@H]3CCC4=CC(=O)C=C[C@]4(C)[C@@]3(F)[C@@H](O)C[C@]2(C)[C@H]1C(=O)CO 2.61%, CCC(=O)C1=C(c2ccccc2)N(C(=O)CC)n2c(nnc2C2CCCCC2)S1 -6.95%, O=C(Nc1ccccc1[N+](=O)[O-])c1csnn1 4.06%, O=C(Nc1ccc2nc(SCC(=O)N3CCc4ccccc43)sc2c1)c1ccc(Cl)cc1 0.689%, Cc1ccc(NC(=O)CN2C(=O)C(c3ccc(F)cc3)=NC2(C)C)c(C)c1 -17.2%, Cc1cccc(C(=O)Nc2sc3c(c2C(=O)Nc2ccccc2)CCC3)c1 -8.4%, CCN(CC)C(=O)Nc1ccc(OCC(O)CNC(C)(C)C)c(C(C)=O)c1 (centres undefined) 6.92%, COc1ccc(CCNC(=O)c2cc(-c3ccc(C)c(C)c3)nc3ccccc23)cc1OC -15.4%, CCCn1c2ccc(C)cc2c2nnc(SCCN3CCCCC3)nc21 0%, Cc1ccc(S(=O)(=O)Nc2nc3n(n2)C(c2ccc(Cl)cc2)C=C(c2ccccc2)N3)cc1 (centres undefined) -15.2%, O=C(CN1C(=O)CC(c2ccco2)Sc2ccccc21)Nc1ccc(OC(F)(F)F)cc1 (centres undefined) -17.8%, Cc1ccc(NC(=O)[C@H](Cc2ccccc2)N2Cc3ccccc3C2=O)cc1F -7.14%, CCOc1ccc(C2CC(=O)c3c([nH]c(C(=O)OC4CCCCCC4)c3C)C2)cc1 (centres undefined) -4.45%, Cc1nn(C)c2c1c(C(F)(F)F)cc(=O)n2C(C)C(=O)NCc1ccccc1 (centres undefined) -23.4%, CCOCCc1nn2c(=O)cc(COC(=O)c3ccc4c(c3)OCO4)nc2s1 -5.68%, Cn1c(C(=O)Nc2cccc(Cl)c2)cc2c(=O)n(C)c3ccccc3c21 0.254%, COc1ccc(-c2nc(CS(=O)CC(=O)NCc3ccccc3Cl)c(C)o2)cc1OC (centres undefined) -2.1%, O=S(=O)(c1ccc(Br)cc1)N1CCn2cccc2C1c1ccc(Br)cc1 (centres undefined) 0%, Cc1ccc(CNc2nc3nc(C)c(Cl)c(C)n3n2)cc1 75.2%, Cc1ccc(-c2cn3c(n2)sc2cc(C(=O)NC4CCCCCC4)ccc23)c(C)c1 -2.43%, Cc1cccc(NC(c2nnc(-c3ccccc3)o2)c2ccc(F)cc2Cl)c1C (centres undefined) -19.3%, Cc1oc2c(c(C)cc3oc(=O)c(CC(=O)NCCc4ccc(Cl)cc4)c(C)c32)c1C 26.7%, CC(C)c1nn2c(=O)cc(COC(=O)COc3ccccc3F)nc2s1 -0.267%, CCc1ccccc1NC(=O)CSc1nc2ccccc2nc1Cc1cccc(OC)c1 -5.38%, O=C(NCc1ccccc1)c1ccc2c(c1)sc1nc(-c3ccc(F)cc3)cn12 6.78%

Potency, active:
CCOc1cc(Cl)c(S(=O)(=O)n2cc(C)nc2CC)cc1Cl 15.8 µM
